# Measurements as given in the supplement of paper PMC8728848.
# Some of the results follow.
# Columns and labels:
# Assay in all cases: glycan array binding signal (z-score within array); higher = stronger binding
# Conditions in all cases: glycan notation: IUPAC condensed, linker removed
# [1] = biological target: Neu5Ac(a2-3)Gal
# Method in brief: (§1)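 Glycan array binding is given as a within-array Z-score, which can be read as non-binding when negative. The arrays, 3228 of them, came from the Consortium for Functional Glycomics database and were retained only where the protein sequence was available. Z-scores were averaged across arrays of the same protein sequence at different concentrations or buffers and across linkers.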
# [2] = biological target: Neu5Ac(a2-3)Gal(b1-3)GalNAc
# Method in brief: as §1
# [3] = biological target: Neu5Ac(a2-3)Gal(b1-3)GalNAc(b1-3)Gal(a1-4)Gal(b1-4)Glc
# Method in brief: as §1
# [4] = biological target: Neu5Ac(a2-3)Gal(b1-3)GalNAc(b1-4)[Neu5Ac(a2-3)]Gal(b1-4)Glc
# Method in brief: as §1
# [5] = biological target: Neu5Ac(a2-3)Gal(b1-3)GalNAc(b1-4)[Neu5Ac(a2-8)Neu5Ac(a2-3)]Gal(b1-4)Glc
# Method in brief: as §1
# [6] = biological target: Neu5Ac(a2-3)Gal(b1-3)GalNAc6S
# Method in brief: as §1
# [7] = biological target: Neu5Ac(a2-3)Gal(b1-3)GlcNAc
# Method in brief: as §1
# [8] = biological target: Neu5Ac(a2-3)Gal(b1-3)GlcNAc(b1-2)Man
# Method in brief: as §1
# [9] = biological target: Neu5Ac(a2-3)Gal(b1-3)GlcNAc(b1-2)Man(a1-3)[GlcNAc(b1-4)][Neu5Ac(a2-3)Gal(b1-3)GlcNAc(b1-2)Man(a1-6)]Man(b1-4)GlcNAc(b1-4)GlcNAc
# Method in brief: as §1
# [10] = biological target: Neu5Ac(a2-3)Gal(b1-3)GlcNAc(b1-2)Man(a1-3)[Neu5Ac(a2-3)Gal(b1-3)GlcNAc(b1-2)Man(a1-6)]Man(b1-4)GlcNAc(b1-4)GlcNAc
# Method in brief: as §1
# [11] = biological target: Neu5Ac(a2-3)Gal(b1-3)GlcNAc(b1-3)Gal(b1-3)GlcNAc
# Method in brief: as §1
# [12] = biological target: Neu5Ac(a2-3)Gal(b1-3)GlcNAc(b1-3)Gal(b1-4)GlcNAc
# Method in brief: as §1
# [13] = biological target: Neu5Ac(a2-3)Gal(b1-3)GlcNAc(b1-3)GalNAc
# Method in brief: as §1
# [14] = biological target: Neu5Ac(a2-3)Gal(b1-3)GlcNAc(b1-4)Gal(b1-4)Glc
# Method in brief: as §1
# [15] = biological target: Neu5Ac(a2-3)Gal(b1-3)GlcNAc(b1-6)GalNAc
# Method in brief: as §1
# [16] = biological target: Neu5Ac(a2-3)Gal(b1-3)GlcNAc6S
# Method in brief: as §1
# [17] = biological target: Neu5Ac(a2-3)Gal(b1-3)[Fuc(a1-4)]GlcNAc
# Method in brief: as §1
# [18] = biological target: Neu5Ac(a2-3)Gal(b1-3)[Fuc(a1-4)]GlcNAc(b1-3)Gal(b1-3)[Fuc(a1-4)]GlcNAc
# Method in brief: as §1
# [19] = biological target: Neu5Ac(a2-3)Gal(b1-3)[Fuc(a1-4)]GlcNAc(b1-3)Gal(b1-4)[Fuc(a1-3)]GlcNAc
# Method in brief: as §1
# [20] = biological target: Neu5Ac(a2-3)Gal(b1-3)[GlcNAc(b1-6)]GalNAc
# Method in brief: as §1
# [21] = biological target: Neu5Ac(a2-3)Gal(b1-3)[Neu5Ac(a2-6)]GalNAc
# Method in brief: as §1
# [22] = biological target: Neu5Ac(a2-3)Gal(b1-3)[Neu5Ac(a2-6)]GlcNAc(b1-3)[Fuc(a1-3)[Gal(b1-4)]GlcNAc(b1-6)]Gal(b1-4)Glc
# Method in brief: as §1
# [23] = biological target: Neu5Ac(a2-3)Gal(b1-3)]Neu5Ac(a2-3)Gal(b1-4)]GlcNAc
# Method in brief: as §1
# [24] = biological target: Neu5Ac(a2-3)Gal(b1-4)Glc
# Method in brief: as §1
# [25] = biological target: Neu5Ac(a2-3)Gal(b1-4)GlcNAc
# Method in brief: as §1
# [26] = biological target: Neu5Ac(a2-3)Gal(b1-4)GlcNAc(b1-2)Man
# Method in brief: as §1
# [27] = biological target: Neu5Ac(a2-3)Gal(b1-4)GlcNAc(b1-2)Man(a1-3)[GlcNAc(b1-4)][Neu5Ac(a2-3)Gal(b1-4)GlcNAc(b1-2)Man(a1-6)]Man(b1-4)GlcNAc(b1-4)GlcNAc
# Method in brief: as §1
# [28] = biological target: Neu5Ac(a2-3)Gal(b1-4)GlcNAc(b1-2)Man(a1-3)[Neu5Ac(a2-3)Gal(b1-4)GlcNAc(b1-2)Man(a1-6)]Man(b1-4)GlcNAc(b1-4)GlcNAc
# Method in brief: as §1
# [29] = biological target: Neu5Ac(a2-3)Gal(b1-4)GlcNAc(b1-2)Man(a1-3)[Neu5Ac(a2-3)Gal(b1-4)GlcNAc(b1-2)Man(a1-6)]Man(b1-4)GlcNAc(b1-4)[Fuc(a1-6)]GlcNAc
# Method in brief: as §1
# [30] = biological target: Neu5Ac(a2-3)Gal(b1-4)GlcNAc(b1-2)Man(a1-3)[Neu5Ac(a2-6)Gal(b1-4)GlcNAc(b1-2)Man(a1-6)]Man(b1-4)GlcNAc(b1-4)GlcNAc
# Method in brief: as §1
# [31] = biological target: Neu5Ac(a2-3)Gal(b1-4)GlcNAc(b1-2)[Neu5Ac(a2-3)Gal(b1-4)GlcNAc(b1-4)]Man(a1-3)[GlcNAc(b1-4)][Neu5Ac(a2-3)Gal(b1-4)GlcNAc(b1-2)[Neu5Ac(a2-3)Gal(b1-4)GlcNAc(b1-6)]Man(a1-6)]Man(b1-4)GlcNAc(b1-4)GlcNAc
# Method in brief: as §1
# [32] = biological target: Neu5Ac(a2-3)Gal(b1-4)GlcNAc(b1-2)[Neu5Ac(a2-3)Gal(b1-4)GlcNAc(b1-4)]Man(a1-3)[GlcNAc(b1-4)][Neu5Ac(a2-3)Gal(b1-4)GlcNAc(b1-4)Man(a1-6)]Man(b1-4)GlcNAc(b1-4)GlcNAc
# Method in brief: as §1
# [33] = biological target: Neu5Ac(a2-3)Gal(b1-4)GlcNAc(b1-2)[Neu5Ac(a2-3)Gal(b1-4)GlcNAc(b1-6)]Man(a1-6)[Neu5Ac(a2-3)Gal(b1-4)GlcNAc(b1-2)Man(a1-3)]Man(b1-4)GlcNAc(b1-4)GlcNAc
# Method in brief: as §1
# [34] = biological target: Neu5Ac(a2-3)Gal(b1-4)GlcNAc(b1-2)[Neu5Ac(a2-3)Gal(b1-4)GlcNAc(b1-6)]Man(a1-6)[Neu5Ac(a2-3)Gal(b1-4)GlcNAc(b1-2)Man(a1-3)][GlcNAc(b1-4)]Man(b1-4)GlcNAc(b1-4)GlcNAc
# Method in brief: as §1
# [35] = biological target: Neu5Ac(a2-3)Gal(b1-4)GlcNAc(b1-3)Gal
# Method in brief: as §1
# [36] = biological target: Neu5Ac(a2-3)Gal(b1-4)GlcNAc(b1-3)Gal(b1-3)GlcNAc
# Method in brief: as §1
# [37] = biological target: Neu5Ac(a2-3)Gal(b1-4)GlcNAc(b1-3)Gal(b1-4)GlcNAc
# Method in brief: as §1
# [38] = biological target: Neu5Ac(a2-3)Gal(b1-4)GlcNAc(b1-3)Gal(b1-4)GlcNAc(b1-2)Man(a1-3)[Neu5Ac(a2-3)Gal(b1-4)GlcNAc(b1-3)Gal(b1-4)GlcNAc(b1-2)Man(a1-6)]Man(b1-4)GlcNAc(b1-4)GlcNAc
# Method in brief: as §1
# [39] = biological target: Neu5Ac(a2-3)Gal(b1-4)GlcNAc(b1-3)Gal(b1-4)GlcNAc(b1-3)Gal(b1-4)GlcNAc
# Method in brief: as §1
# [40] = biological target: Neu5Ac(a2-3)Gal(b1-4)GlcNAc(b1-3)Gal(b1-4)GlcNAc(b1-3)Gal(b1-4)GlcNAc(b1-2)Man(a1-3)[Neu5Ac(a2-3)Gal(b1-4)GlcNAc(b1-3)Gal(b1-4)GlcNAc(b1-3)Gal(b1-4)GlcNAc(b1-2)Man(a1-6)]GalNAc
# Method in brief: as §1
# [41] = biological target: Neu5Ac(a2-3)Gal(b1-4)GlcNAc(b1-3)Gal(b1-4)GlcNAc(b1-3)GalNAc
# Method in brief: as §1
# [42] = biological target: Neu5Ac(a2-3)Gal(b1-4)GlcNAc(b1-3)Gal(b1-4)GlcNAc(b1-3)[Neu5Ac(a2-3)Gal(b1-4)GlcNAc(b1-3)Gal(b1-4)GlcNAc(b1-6)]GalNAc
# Method in brief: as §1
# [43] = biological target: Neu5Ac(a2-3)Gal(b1-4)GlcNAc(b1-3)Gal(b1-4)GlcNAc(b1-6)[Gal(b1-3)]GalNAc
# Method in brief: as §1
# [44] = biological target: Neu5Ac(a2-3)Gal(b1-4)GlcNAc(b1-3)Gal(b1-4)[Fuc(a1-3)]GlcNAc
# Method in brief: as §1
# [45] = biological target: Neu5Ac(a2-3)Gal(b1-4)GlcNAc(b1-3)GalNAc
# Method in brief: as §1
binder,measurement,setting,value
"CFEM-CGl (Candida glabrata), Q6FRS0 (protein) VLATPPACLLACVAQVSKQSSQCHTLNQVGCFCENENTAIKNCLDSICPNGNSDAAYTAFKNSCGDVGKAVASV",glycan array binding signal (z-score),[1],-0.268
same,glycan array binding signal (z-score),[2],-0.016
same,glycan array binding signal (z-score),[3],-0.144
same,glycan array binding signal (z-score),[4],-0.129
same,glycan array binding signal (z-score),[5],-0.372
same,glycan array binding signal (z-score),[6],0.752
same,glycan array binding signal (z-score),[7],-0.015
same,glycan array binding signal (z-score),[8],-0.203
same,glycan array binding signal (z-score),[9],-0.289
same,glycan array binding signal (z-score),[10],-0.352
same,glycan array binding signal (z-score),[11],-0.33
same,glycan array binding signal (z-score),[12],-0.343
same,glycan array binding signal (z-score),[13],-0.212
same,glycan array binding signal (z-score),[14],-0.02
same,glycan array binding signal (z-score),[15],-0.15
same,glycan array binding signal (z-score),[16],-0.154
same,glycan array binding signal (z-score),[17],-0.12
same,glycan array binding signal (z-score),[18],0.386
same,glycan array binding signal (z-score),[19],-0.285
same,glycan array binding signal (z-score),[20],0.035
same,glycan array binding signal (z-score),[21],0.171
same,glycan array binding signal (z-score),[22],-0.266
same,glycan array binding signal (z-score),[23],-0.556
same,glycan array binding signal (z-score),[24],0.018
same,glycan array binding signal (z-score),[25],-0.369
same,glycan array binding signal (z-score),[26],0.827
same,glycan array binding signal (z-score),[27],-0.143
same,glycan array binding signal (z-score),[28],-0.517
same,glycan array binding signal (z-score),[29],-0.447
same,glycan array binding signal (z-score),[30],-0.682
same,glycan array binding signal (z-score),[31],-0.43
same,glycan array binding signal (z-score),[32],-0.2
same,glycan array binding signal (z-score),[33],-0.016
same,glycan array binding signal (z-score),[34],-0.394
same,glycan array binding signal (z-score),[35],-0.438
same,glycan array binding signal (z-score),[36],-0.156
same,glycan array binding signal (z-score),[37],-0.225
same,glycan array binding signal (z-score),[38],0.024
same,glycan array binding signal (z-score),[39],-0.472
same,glycan array binding signal (z-score),[40],2.18
same,glycan array binding signal (z-score),[41],-0.518
same,glycan array binding signal (z-score),[42],0.315
same,glycan array binding signal (z-score),[43],0.005
same,glycan array binding signal (z-score),[44],-0.122
same,glycan array binding signal (z-score),[45],-0.476
